Further values from the same series stand in other lists.
Test system: 766 cancer cell lines
Test: Large-scale cell-line viability measurements (766 cancer cell lines, 72 h, AUC)
Format: cell-based, human
Description: Cell lines were treated for 72 hours with concentrations ranging from 66.4 μM-2 nM in 2-fold step dilutions.
To characterize cellular sensitivity to DNMDP further, 766 genomically characterized cancer cell lines were screened for DMNDP sensitivity at concentrations ranging from 66.4 μM to 2 nM in 2-fold dilution steps for 72 hours. From these cell lines, 22 cell lines were categorized as sensitive with a robust Z-score lower than −4, which represented multiple lineages including multiple melanoma cell lines, amongst others (Table 1).
The sensitivity of […] cancer cell lines (CCLs) was measured drawn from 23 different lineages to DNMDP. Each cell line was plated in its preferred media in white opaque 1536-plates at a density of 500 cells/well. After incubating overnight, DNMDP was added by acoustic transfer at 16 concentrations ranging from 66.4 μM-2 nM in 2-fold steps in duplicate (Labcyte Echo 555, Labcyte Inc., Sunnyvale, Calif.). After 72 hours treatment, cellular ATP levels were measured as a surrogate for viability (CELLTITERGLO®, Promega Corporation, Madison, Wis.) according to manufacturer's protocols using a ViewLux Microplate Imager (PerkinElmer, Waltham, Mass.) and normalized to background (media-only) and vehicle (DMSO)-treated control wells.
Concentration response curves were fit using nonlinear fits to 2- or 3-parameter sigmoid functions through all 16 concentrations with the low-concentration asymptote set to the DMSO-normalized value, and an optimal 8-point dose curve spanning the range of compound-sensitivity was identified. The area under the 8-point dose curve (AUC) was computed by numeric integration as a metric for sensitivity for further analysis. Similar sensitivity measurements have been obtained for a collection of 480 other compounds, enabling analyses that identify cell lines responding uniquely to DNMDP (see Broad Institute Cancer Therapeutics Response Portal, a dataset to identify comprehensively relationships between genetic and lineage features of human cancer cell lines and small-molecule sensitivities for complete list of compounds).

[1] = cell line FUOV1, OVARY, 72 hours
[2] = cell line GA10 (HAEMATOPOIETIC AND LYMPHOID TISSUE)
[3] = cell line GAMG (CENTRAL NERVOUS SYSTEM)
[4] = cell line GI1 (CENTRAL NERVOUS SYSTEM)
[5] = cell line HCC1438, LUNG, 72 hours
[6] = cell line HCC1588, LUNG, 72 hours
[7] = cell line HCC1833, LUNG, 72 hours
[8] = cell line HCC2218, BREAST, 72 hours
[9] = cell line HCC2935, LUNG, 72 hours
[10] = cell line HCT116 (LARGE INTESTINE)
[11] = cell line HDLM2 (HAEMATOPOIETIC AND LYMPHOID TISSUE)
[12] = cell line HDMYZ (HAEMATOPOIETIC AND LYMPHOID TISSUE)
[13] = cell line HDQP1, BREAST, 72 hours
[14] = cell line HEC265, ENDOMETRIUM, 72 hours
[15] = cell line HEP3B217, LIVER, 72 hours

`CCN(CC)c1ccc(C2=NNC(=O)CC2C)cc1[N+](=O)[O-]` (stereo not drawn) [DNMDP, 6-(4-(diethylamino)-3-nitrophenyl)-5-methyl-4,5-dihydropyridazin-3(2H)-one] was tested, and the “DNMDP AUC” value [1] was 7.6122, the “Robust Z-score” value [1] was 1.026 and the “DNMDP AUC” value (cell line G361 (SKIN)) was 6.6284. The “Robust Z-score” value (cell line G361 (SKIN)) was −0.00656, the “DNMDP AUC” value [2] was 6.59 and the “Robust Z-score” value [2] was −0.04687. The “DNMDP AUC” value [3] was 6.8471, the “Robust Z-score” value [3] was 0.223 and the “DNMDP AUC” value (cell line GCT (SOFT TISSUE)) was 7.0174. The “Robust Z-score” value (cell line GCT (SOFT TISSUE)) was 0.4018, the “DNMDP AUC” value [4] was 6.9897 and the “Robust Z-score” value [4] was 0.3727. For the same compound, the “DNMDP AUC” value (cell line GSS (STOMACH)) was 6.794, the “Robust Z-score” value (cell line GSS (STOMACH)) was 0.1673 and the “DNMDP AUC” value (cell line HARA (LUNG)) was 6.7238. The “Robust Z-score” value (cell line HARA (LUNG)) was 0.09358, the “DNMDP AUC” value (cell line HCC78 (LUNG)) was 6.7625 and the “Robust Z-score” value (cell line HCC78 (LUNG)) was 0.1342. For the same compound, the “DNMDP AUC” value (cell line HCC95 (LUNG)) was 6.7794, the “Robust Z-score” value (cell line HCC95 (LUNG)) was 0.1519 and the “DNMDP AUC” value (cell line HCC202 (BREAST)) was 6.5484. For the same compound, the “Robust Z-score” value (cell line HCC202 (BREAST)) was −0.09053, the “DNMDP AUC” value (cell line HCC366 (LUNG)) was 6.9295 and the “Robust Z-score” value (cell line HCC366 (LUNG)) was 0.3095. For the same compound, the “DNMDP AUC” value (cell line HCC827 (LUNG)) was 6.7384, the “Robust Z-score” value (cell line HCC827 (LUNG)) was 0.1089 and the “DNMDP AUC” value (cell line HCC1171 (LUNG)) was 6.7838. For the same compound, the “Robust Z-score” value (cell line HCC1171 (LUNG)) was 0.1566, the “DNMDP AUC” value (cell line HCC1195 (LUNG)) was 6.941 and the “Robust Z-score” value (cell line HCC1195 (LUNG)) was 0.3216. For the same compound, the “DNMDP AUC” value [5] was 7.7264, the “Robust Z-score” value [5] was 1.146 and the “DNMDP AUC” value (cell line HCC1569 (BREAST)) was 6.6976. For the same compound, the “Robust Z-score” value (cell line HCC1569 (BREAST)) was 0.06608, the “DNMDP AUC” value [6] was 7.1149 and the “Robust Z-score” value [6] was 0.5041. The “DNMDP AUC” value (cell line HCC1806 (BREAST)) was 6.8314, the “Robust Z-score” value (cell line HCC1806 (BREAST)) was 0.2065 and the “DNMDP AUC” value [7] was 7.2887. The “Robust Z-score” value [7] was 0.6865, the “DNMDP AUC” value (cell line HCC1937 (BREAST)) was 6.5773 and the “Robust Z-score” value (cell line HCC1937 (BREAST)) was −0.0602. The “DNMDP AUC” value (cell line HCC1954 (BREAST)) was 6.9728, the “Robust Z-score” value (cell line HCC1954 (BREAST)) was 0.3549 and the “DNMDP AUC” value (cell line HCC2108 (LUNG)) was 6.9789. The “Robust Z-score” value (cell line HCC2108 (LUNG)) was 0.3613, the “DNMDP AUC” value [8] was 7.1208 and the “Robust Z-score” value [8] was 0.5103. The “DNMDP AUC” value (cell line HCC2279 (LUNG)) was 7.0072, the “Robust Z-score” value (cell line HCC2279 (LUNG)) was 0.391 and the “DNMDP AUC” value [9] was 7.5084. The “Robust Z-score” value [9] was 0.9171, the “DNMDP AUC” value [10] was 6.632 and the “Robust Z-score” value [10] was −0.002782. The “DNMDP AUC” value [11] was 6.7172, the “Robust Z-score” value [11] was 0.08665 and the “DNMDP AUC” value [12] was 6.5974. For the same compound, the “Robust Z-score” value [12] was −0.0391, the “DNMDP AUC” value [13] was 7.2935 and the “Robust Z-score” value [13] was 0.6916. The “DNMDP AUC” value (cell line HEC1A (ENDOMETRIUM)) was 7.0465, the “Robust Z-score” value (cell line HEC1A (ENDOMETRIUM)) was 0.4323 and the “DNMDP AUC” value (cell line HEC1B (ENDOMETRIUM)) was 6.9583. For the same compound, the “Robust Z-score” value (cell line HEC1B (ENDOMETRIUM)) was 0.3397, the “DNMDP AUC” value (cell line HEC6 (ENDOMETRIUM)) was 6.6667 and the “Robust Z-score” value (cell line HEC6 (ENDOMETRIUM)) was 0.03364. For the same compound, the “DNMDP AUC” value (cell line HEC50B (ENDOMETRIUM)) was 6.9622, the “Robust Z-score” value (cell line HEC50B (ENDOMETRIUM)) was 0.3438 and the “DNMDP AUC” value (cell line HEC59 (ENDOMETRIUM)) was 6.7321. The “Robust Z-score” value (cell line HEC59 (ENDOMETRIUM)) was 0.1023, the “DNMDP AUC” value (cell line HEC108 (ENDOMETRIUM)) was 7.0804 and the “Robust Z-score” value (cell line HEC108 (ENDOMETRIUM)) was 0.4679. For the same compound, the “DNMDP AUC” value (cell line HEC151 (ENDOMETRIUM)) was 6.9099, the “Robust Z-score” value (cell line HEC151 (ENDOMETRIUM)) was 0.2889 and the “DNMDP AUC” value (cell line HEC251 (ENDOMETRIUM)) was 6.7301. The “Robust Z-score” value (cell line HEC251 (ENDOMETRIUM)) was 0.1002, the “DNMDP AUC” value [14] was 7.2509 and the “Robust Z-score” value [14] was 0.6468. The “DNMDP AUC” value [15] was 7.4062, the “Robust Z-score” value [15] was 0.8099 and the “DNMDP AUC” value (cell line HEPG2 (LIVER)) was 6.8274. For the same compound, the “Robust Z-score” value (cell line HEPG2 (LIVER)) was 0.2023, the “DNMDP AUC” value (cell line HEYA8 (OVARY)) was 6.7972 and the “Robust Z-score” value (cell line HEYA8 (OVARY)) was 0.1706.

From US11207320B2, “Compositions and methods for cancer expressing PDE3A or SLFN12” (The Broad Institute, Inc., priority 2015, dated 2021)
